Assay results published in PubChem BioAssay AID1030 (National Center for Advancing Translational Sciences (NCATS), 2008).
Values joined by “and” are separate entries in the source; they are usually repeats but may differ in a detail not shown here. Equal values may be shown once. Hit rate of the full screen: of about 220,000 compounds, about 16,000 (7.3%) were called active. Inconclusive results, whose numbers are uncertain, are shown with a selection of clear calls. Calls follow the shape of the dose curve; as a rule, active = well fitted inhibition curve with a large enough effect (not every such curve was filed as active); inconclusive = small, poorly fitted or top-dose-only effect, or another doubt; inactive = no such curve, though single readings can be large or run the other way. Where the call is inconclusive, the potency comes from a doubtful curve fit.
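For activity, negative = inhibition in this document: plate controls were no enzyme wells and a reference inhibitor.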
Potency is read from the fitted curve at half-maximal effect; tags tell the direction and shape of the fitted curve.

What follows are compounds tested against Aldehyde dehydrogenase 1A1 (Homo sapiens) (UniProt P00352) (assay: qHTS Assay for Inhibitors of Aldehyde Dehydrogenase 1 (ALDH1A1)). Details: Purified ALDH1A1, NADH fluorescence, propionaldehyde substrate; series mostly up to 75.3 µM; activity, negative = inhibition: at the top concentration.
Sequence of UniProt P00352 (P00352 whole entry, looked up): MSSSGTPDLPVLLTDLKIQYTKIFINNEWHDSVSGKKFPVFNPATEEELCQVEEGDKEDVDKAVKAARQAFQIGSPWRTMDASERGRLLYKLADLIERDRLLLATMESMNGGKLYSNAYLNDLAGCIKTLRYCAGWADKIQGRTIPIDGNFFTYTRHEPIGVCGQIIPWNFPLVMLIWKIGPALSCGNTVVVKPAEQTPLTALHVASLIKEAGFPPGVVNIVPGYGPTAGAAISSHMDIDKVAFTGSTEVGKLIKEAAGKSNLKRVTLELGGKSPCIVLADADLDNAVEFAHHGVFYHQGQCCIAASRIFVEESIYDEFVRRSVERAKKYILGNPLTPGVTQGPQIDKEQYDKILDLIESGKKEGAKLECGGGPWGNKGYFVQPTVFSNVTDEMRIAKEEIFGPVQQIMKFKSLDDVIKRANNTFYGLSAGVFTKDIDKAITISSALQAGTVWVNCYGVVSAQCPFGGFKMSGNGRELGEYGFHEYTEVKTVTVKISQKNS
For `C=CCSc1nnc(NC(=O)c2ccc(Cl)nc2)s1`, the Potency was inconclusive: 17.8 µM [inhibitor, partial curve]. In the case of `CC(C)[C@]1(O)[C@@H](OC(=O)c2ccc[nH]2)[C@]2(O)[C@@]3(C)C[C@@]4(O)O[C@@]5([C@H](O)[C@@H](C)CC[C@]35O)[C@]2(O)[C@]41C`, the activity, negative = inhibition is reported as inactive: 3.29% [at 13.5 µM]. `Cc1ccc2c(c1)CC1(CN2C)C(=O)NC(=O)N(c2cccc(C)c2C)C1=O` (stereo not drawn) was tested, and the Potency was inconclusive: 39.8 µM [inhibitor, single point]. For `COc1cc(Cc2ccc(N)c(OC)c2)ccc1N`, the Potency was inconclusive: 39.8 µM [inhibitor, single point]. With `O=C1NC(=O)C2(Cc3ccccc3N3CCOCC32)C(=O)N1c1ccccc1` (stereo not drawn) the “activity, negative = inhibition” value was inactive: -5.78%. In the case of `CCn1cc(C(=O)O)c(=O)c2cc(F)c(N3CCNCC3)cc21`, the Potency is reported as inconclusive: 10 µM [inhibitor, partial curve] and inconclusive: 25.1 µM [inhibitor, partial curve] and inconclusive: 8.91 µM [inhibitor, full curve]. In the case of `c1ccc(-c2nc(N3CCOCC3)s[n+]2-c2ccccc2)cc1`, the Potency is reported as active: 1.78 µM. With `S=c1[nH]nc(-c2ccco2)n1-c1cccc2ccccc12` the Potency was inconclusive: 25.1 µM [inhibitor, single point]. For `O=C1C=C2C=C[C@H]3C[C@@]2(O1)[C@H]1CCCCN31`, the “activity, negative = inhibition” value was inactive: 0.439% [at 20.9 µM]. In the case of `CC/C(=N\N1CCN(C)CC1)c1c(O)[nH]c(=O)[nH]c1=O`, the “activity, negative = inhibition” value is reported as inactive: -5.12%. With `O=C(c1ccco1)c1cn(Cc2ccccc2)c2ccccc12` the Potency was inconclusive: 17.8 µM [inhibitor, partial curve]. In the case of `Cc1ccc(NC(=O)CN(C)CC(=O)Nc2cccc(F)c2)cc1[N+](=O)[O-]`, the Potency is reported as inconclusive: 39.8 µM [inhibitor, single point]. For `Cc1[nH]n(-c2ccccc2)c(=O)c1C(c1cccc([N+](=O)[O-])c1O)c1c(C)[nH]n(-c2ccccc2)c1=O`, the Potency was active: 15.8 µM. In the case of `O=C(O)c1ccc2c(c1)C1C(Cl)C(Sc3ccccc3[N+](=O)[O-])CC1C(c1cccc([N+](=O)[O-])c1)N2` (stereo not drawn), the Potency is reported as inconclusive: 39.8 µM [inhibitor, single point]. In the case of `CC(C)[C@@]1(NC(=O)[C@@H]2C=C3c4cccc5[nH]cc(c45)C[C@H]3N(C)C2)O[C@@]2(O)[C@@H]3CCCN3C(=O)[C@H](Cc3ccccc3)N2C1=O`, the Potency is reported as inconclusive: 17.8 µM [inhibitor, partial curve]. In the case of `O=c1[nH]c(=O)n(Cc2ccccc2)c(O)c1C=NCCN1CCOCC1`, the Potency is reported as inconclusive: 25.1 µM [inhibitor, partial curve]. In the case of `Cc1cc(C)nc(/N=C/c2c(O)n(C)c(=O)n(C)c2=O)n1`, the Potency is reported as inconclusive: 35.5 µM [inhibitor, single point]. For `CCOc1ccc(CN(CCCl)CCCl)cc1C(=O)OC`, the “activity, negative = inhibition” value was inactive: -5.9%. In the case of `C=CCn1c(O)c(C=NCCN2CCNCC2)c(=O)[nH]c1=O`, the Potency is reported as inconclusive: 37.7 µM [inhibitor, single point]. For `O=C(c1cc(S(=O)(=O)N2CCC3(CC2)OCCO3)ccc1F)N1CCC2(CC1)OCCO2`, the Potency was inconclusive: 25.1 µM [inhibitor, single point]. In the case of `CN1C(=O)C(Cc2ccc3c(c2)OCO3)C(=O)N(C)C1=O`, the Potency is reported as active: 23.8 µM. For `CCOC(=O)CC1=C(C(=O)OCC)C2(C(=O)N1CC(=O)OC)C(C#N)=C(N)Oc1ccccc12` (stereo not drawn), the Potency was active: 1.12 µM. With `CC1(C)C(c2ccccc2)=NC(c2cccnc2)=[N+]1[O-]` the “activity, negative = inhibition” value was inactive: 4.87%. With `Cc1ccc(-c2nc3ccccc3c(=O)n2-c2ccc(Br)cn2)cc1` the Potency was inconclusive: 39.8 µM [inhibitor, single point]. `CC[C@@H](CO)NC(=O)[C@@H]1C=C2c3cccc4c3c(cn4C)C[C@H]2N(C)C1` was tested, and the Potency was active: 3.16 µM. `COc1ccc(NC(=O)N2CC[C@@]3(CCCN(C(=O)Oc4ccccc4)C3)C2)cc1` was tested, and the Potency was inconclusive: 20 µM [inhibitor, partial curve]. `O=C1NC(=S)N(c2ccc(Cl)cc2)C(=O)/C1=C/N1CCN(C(=O)c2ccco2)CC1` was tested, and the Potency was inconclusive: 44.7 µM [inhibitor, single point]. In the case of `CC(=O)N1CC[N+](C)(C)CC1`, the Potency is reported as “inactive”. In the case of `Nc1ccccc1C(=O)OCC(=O)Nc1ccc(Br)cc1F`, the Potency is reported as inconclusive: 28.2 µM [inhibitor, partial curve]. For `O=c1ccc2cc(OC3OC(CO)C(O)C(O)C3O)c(O)cc2o1` (stereo not drawn), the Potency was inconclusive: 0.708 µM [inhibitor, partial curve, poor fit]. For `C/C(=N\OC(=O)NC(C)C)c1sc(-c2ccc(Cl)cc2)nc1C`, the Potency was inconclusive: 39.8 µM [inhibitor, single point]. `O=C1C2CCCN2C(c2ccncc2)N1c1ccc(Cl)c(Cl)c1` (stereo not drawn) was tested, and the Potency was active: 20 µM. `CCCNC(=O)c1c(N)n(Cc2ccco2)c2nc3ccccc3nc12` was tested, and the Potency was inconclusive: 15.8 µM [inhibitor, partial curve]. For `COc1ccccc1CN1CCN(C(=O)COc2cccc(C)c2)CC1`, the Potency was inconclusive: 39.8 µM [inhibitor, single point]. `CCCN(CC#CCOc1ccc(OC)cc1)CCC` was tested, and the Potency was active: 20 µM. For `O=c1c(F)cn(C2CCCO2)c(=O)n1Cc1c(F)cccc1Cl` (stereo not drawn), the Potency was inconclusive: 37.7 µM [inhibitor, single point]. With `CCCC1=C(C(=O)OCC)C2(C(=O)Nc3ccccc32)C(C#N)=C(N)O1` (stereo not drawn) the Potency was active: 11.2 µM. `CC(C)CN1CC[C@@]2(CCCN(C(=O)c3ccncc3)C2)C1` was tested, and the “activity, negative = inhibition” value was inactive: -5.11%. With `NCCP(=O)(O)O` the Potency was inconclusive: 3.98 µM [inhibitor, single point]. In the case of `CC(=O)[C@H]1[C@H](C#N)C[C@H]2[C@@H]3CC=C4C[C@@H](O)CC[C@]4(C)[C@H]3CC[C@@]21C`, the Potency is reported as “inactive”. With `O=C(Oc1ccccc1)N1CCC2(CC1)CN(C(c1ccccc1)c1ccccc1)C2` the Potency was inconclusive: 17.8 µM [inhibitor, single point]. In the case of `C=CC1CC=CCC1` (stereo not drawn), the Potency is reported as active: 22.4 µM. For `COc1ccc(NC(c2ccccc2F)P(=O)(Oc2ccccc2)Oc2ccccc2)cc1` (stereo not drawn), the Potency was inconclusive: 39.8 µM [inhibitor, single point].
